Laboratory results taken from article PMC9765265.
These are yes or no findings as the source states them, for the method shown. For part of these data: Binding seen in cells or lysates may run through a third protein. Some results given as binding are weak or reduced against the parent protein; the word gives no strength. For part of these data: Tags and fused reporters may be left off the sequences shown.

Amino acid sequences for entries named in this document (tags omitted).
UniProt P13164: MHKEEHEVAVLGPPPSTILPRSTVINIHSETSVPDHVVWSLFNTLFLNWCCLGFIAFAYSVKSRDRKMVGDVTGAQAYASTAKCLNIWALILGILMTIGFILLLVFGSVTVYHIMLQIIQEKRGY
UniProt Q01629: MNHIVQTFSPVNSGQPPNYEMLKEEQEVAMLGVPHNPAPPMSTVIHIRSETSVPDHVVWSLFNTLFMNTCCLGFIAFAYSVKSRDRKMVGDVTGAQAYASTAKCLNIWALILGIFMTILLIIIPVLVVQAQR
UniProt Q01628: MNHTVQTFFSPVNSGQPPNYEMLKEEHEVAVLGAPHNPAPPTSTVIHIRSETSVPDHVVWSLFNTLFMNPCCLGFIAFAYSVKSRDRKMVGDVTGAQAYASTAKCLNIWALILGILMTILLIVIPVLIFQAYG
UniProt Q9CQW9: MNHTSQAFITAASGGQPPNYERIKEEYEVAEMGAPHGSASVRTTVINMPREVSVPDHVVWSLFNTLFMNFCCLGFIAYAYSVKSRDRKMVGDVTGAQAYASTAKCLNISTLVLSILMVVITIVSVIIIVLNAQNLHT

T1: S-tag-mABHD16A (mouse) (UniProt Q9Z1Q2)
T1 sequence: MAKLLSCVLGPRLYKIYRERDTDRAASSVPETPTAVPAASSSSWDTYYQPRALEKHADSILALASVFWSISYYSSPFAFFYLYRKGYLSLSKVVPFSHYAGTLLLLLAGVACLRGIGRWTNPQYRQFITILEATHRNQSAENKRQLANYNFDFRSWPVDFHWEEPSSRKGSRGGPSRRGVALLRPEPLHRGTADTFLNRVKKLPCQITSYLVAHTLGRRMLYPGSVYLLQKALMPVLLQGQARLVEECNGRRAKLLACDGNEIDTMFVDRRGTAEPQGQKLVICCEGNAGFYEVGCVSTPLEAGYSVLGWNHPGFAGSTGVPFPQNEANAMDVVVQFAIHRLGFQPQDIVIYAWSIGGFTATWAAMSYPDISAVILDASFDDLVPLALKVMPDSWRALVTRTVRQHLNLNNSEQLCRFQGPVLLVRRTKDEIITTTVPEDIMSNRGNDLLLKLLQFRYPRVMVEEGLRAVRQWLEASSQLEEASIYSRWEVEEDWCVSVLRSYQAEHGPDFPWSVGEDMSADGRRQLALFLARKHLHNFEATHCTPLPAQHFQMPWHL

T2: mABHD16A-VN (mouse) (UniProt Q9Z1Q2)
T2 sequence: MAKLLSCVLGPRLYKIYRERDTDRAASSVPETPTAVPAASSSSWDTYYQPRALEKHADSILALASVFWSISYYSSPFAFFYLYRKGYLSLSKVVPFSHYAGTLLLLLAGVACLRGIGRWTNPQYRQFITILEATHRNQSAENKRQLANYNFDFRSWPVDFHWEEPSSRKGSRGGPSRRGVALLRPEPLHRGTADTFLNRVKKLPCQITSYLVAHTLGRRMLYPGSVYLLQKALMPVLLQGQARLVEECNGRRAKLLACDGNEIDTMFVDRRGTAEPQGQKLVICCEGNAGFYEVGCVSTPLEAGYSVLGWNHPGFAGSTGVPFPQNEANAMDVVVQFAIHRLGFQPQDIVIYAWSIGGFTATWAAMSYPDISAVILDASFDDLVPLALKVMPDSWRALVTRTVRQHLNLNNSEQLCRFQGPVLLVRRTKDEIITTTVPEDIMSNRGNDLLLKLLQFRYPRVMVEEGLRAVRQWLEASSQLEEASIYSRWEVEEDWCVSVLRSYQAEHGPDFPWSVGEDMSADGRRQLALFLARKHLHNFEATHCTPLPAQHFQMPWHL


What was measured:
S-tag-mABHD16A (mouse) = molecular target: T1, S-tag-mABHD16A (mouse); experiment: co-IP; HEK293 cells transfected with S-tag-mABHD16A and 3×Flag-mIFITM1/2/3 for 24 h; S-tag-mABHD16A as the bait protein (anti-S-tag antibody, magnetic beads, 4°C, 4 h)
mABHD16A-VN (mouse) = molecular target: T2, mABHD16A-VN (mouse); experiment: split reporter; BiFC in living HEK293 cells, 24 h after transfection with mABHD16A-VN + mIFITM1/2/3-VC; Venus signal
[1] = molecular target: human IFITM1 (hIFITM1), Gal4-binding domain fusion (pGBKT7-hifitm1) (human) (UniProt P13164); experiment: two-hybrid; AH109 yeast; Gal4 BD-IFITM as bait (pGBKT7), AD-ABHD16A as prey (pGADT7); growth on SD-Ade/-His/-Leu/-Trp and blue colonies with X-alpha-Gal
[2] = molecular target: human IFITM2 (hIFITM2), Gal4-binding domain fusion (pGBKT7-hifitm2) (human) (UniProt Q01629); experiment: as above
[3] = molecular target: human IFITM3 (hIFITM3), Gal4-binding domain fusion (pGBKT7-hifitm3) (human) (UniProt Q01628); experiment: as above
3×Flag-hIFITM3 (human) = 3×Flag-hIFITM3 (human) (UniProt Q01628); experiment: co-IP; HEK293 cells cotransfected with 3×Flag-hIFITM1/2/3 and GFP-hABHD16A; anti-Flag as bait antibody for IP; magnetic beads, 4°C, 4 h
3×Flag-hIFITM2 (human) = 3×Flag-hIFITM2 (human) (UniProt Q01629); experiment: as above
3×Flag-hIFITM1 (human) = 3×Flag-hIFITM1 (human) (UniProt P13164); experiment: as above

Molecule	binding (S-tag-mABHD16A (mouse))	binding (mABHD16A-VN (mouse))	further results
3×Flag-mIFITM3 (from UniProt Q9CQW9 1-137)	binds		
mIFITM3-VC (from UniProt Q9CQW9 1-137)		binds	
human ABHD16A (hABHD16A), Gal4 activation domain fusion (pGADT7-habhd16a) (enzyme, UniProt O95870-1 1-558) MAKLLSCVLGPRLYKIYRERDSERAPASVPETPTAVTAPHSSSWDTYYQPRALEKHADSILALASVFWSISYYSSPFAFFYLYRKGYLSLSKVVPFSHYAGTLLLLLAGVACLRGIGRWTNPQYRQFITILEATHRNQSSENKRQLANYNFDFRSWPVDFHWEEPSSRKESRGGPSRRGVALLRPEPLHRGTADTLLNRVKKLPCQITSYLVAHTLGRRMLYPGSVYLLQKALMPVLLQGQARLVEECNGRRAKLLACDGNEIDTMFVDRRGTAEPQGQKLVICCEGNAGFYEVGCVSTPLEAGYSVLGWNHPGFAGSTGVPFPQNEANAMDVVVQFAIHRLGFQPQDIIIYAWSIGGFTATWAAMSYPDVSAMILDASFDDLVPLALKVMPDSWRGLVTRTVRQHLNLNNAEQLCRYQGPVLLIRRTKDEIITTTVPEDIMSNRGNDLLLKLLQHRYPRVMAEEGLRVVRQWLEASSQLEEASIYSRWEVEEDWCLSVLRSYQAEHGPDFPWSVGEDMSADGRRQLALFLARKHLHNFEATHCTPLPAQNFQMPWHL			binding [1]: binds; binding [2]: no binding; binding [3]: no binding
GFP-hABHD16A (enzyme, UniProt O95870-1 1-558) MAKLLSCVLGPRLYKIYRERDSERAPASVPETPTAVTAPHSSSWDTYYQPRALEKHADSILALASVFWSISYYSSPFAFFYLYRKGYLSLSKVVPFSHYAGTLLLLLAGVACLRGIGRWTNPQYRQFITILEATHRNQSSENKRQLANYNFDFRSWPVDFHWEEPSSRKESRGGPSRRGVALLRPEPLHRGTADTLLNRVKKLPCQITSYLVAHTLGRRMLYPGSVYLLQKALMPVLLQGQARLVEECNGRRAKLLACDGNEIDTMFVDRRGTAEPQGQKLVICCEGNAGFYEVGCVSTPLEAGYSVLGWNHPGFAGSTGVPFPQNEANAMDVVVQFAIHRLGFQPQDIIIYAWSIGGFTATWAAMSYPDVSAMILDASFDDLVPLALKVMPDSWRGLVTRTVRQHLNLNNAEQLCRYQGPVLLIRRTKDEIITTTVPEDIMSNRGNDLLLKLLQHRYPRVMAEEGLRVVRQWLEASSQLEEASIYSRWEVEEDWCLSVLRSYQAEHGPDFPWSVGEDMSADGRRQLALFLARKHLHNFEATHCTPLPAQNFQMPWHL			binding (3×Flag-hIFITM3 (human)): no binding; binding (3×Flag-hIFITM2 (human)): no binding; binding (3×Flag-hIFITM1 (human)): binds
3×Flag-mIFITM1 (protein, UniProt Q9D103 1-106) MPKEQQEVVVLGSPHISTSATATTINMPEISTPDHVVWSLFNTLFMNFCCLGFVAYAYSVKSRDRKMVGDTTGAQAFASTAKCLNISSLFFTILTAIVVIVVCAIR	no binding		
3×Flag-mIFITM2 (protein, UniProt Q99J93 1-144) MSHNSQAFLSTNAGLPPSYETIKEEYGVTELGEPSNSAVVRTTVINMPREVSVPDHVVWSLFNTLFFNACCLGFVAYAYSVKSRDRKMVGDVVGAQAYASTAKCLNISSLIFSILMVIICIIIFSTTSVVVFQSFAQRTPHSGF	no binding		
mIFITM1-VC (protein, UniProt Q9D103 1-106) MPKEQQEVVVLGSPHISTSATATTINMPEISTPDHVVWSLFNTLFMNFCCLGFVAYAYSVKSRDRKMVGDTTGAQAFASTAKCLNISSLFFTILTAIVVIVVCAIR		no binding	
mIFITM2-VC (protein, UniProt Q99J93 1-144) MSHNSQAFLSTNAGLPPSYETIKEEYGVTELGEPSNSAVVRTTVINMPREVSVPDHVVWSLFNTLFFNACCLGFVAYAYSVKSRDRKMVGDVVGAQAYASTAKCLNISSLIFSILMVIICIIIFSTTSVVVFQSFAQRTPHSGF		no binding	
